Results on 28 molecules are retold here after the antibiotic and cytotoxicity screens of Wong et al. (2023).

Structures are written as SMILES. The list shows a part of the results.

Assay [1] has as its system HSkMC (human skeletal muscle cells). Put plainly: cytotoxicity call (relative viability < 0.9). Particulars: 10 µM.
For assay [2], the system named is HepG2. Briefly: cytotoxicity call (relative viability < 0.9). Particulars: 10 µM.
Assay [3] deals with S. aureus RN4220. Put plainly: growth inhibition call (relative growth <= 0.2). Conditions: 50 µM.

Consider `C=CCC1C=C(C)CC(C)CC(OC)C2OC(O)(C(=O)C(=O)N3CCCCC3C(=O)OC(C(C)=CC3CCC(O)C(OC)C3)C(C)C(O)CC1=O)C(C)CC2OC` (centres undefined), for which the cytotoxicity call in assay [1] and in assay [2] was “inactive” in each case. The growth inhibition call in assay [3] is “inactive”.

On to `CCC[C@@H](O)C#Cc1cnc2c(c1)C(=O)N([C@H](C)CO)C[C@H](C)[C@H](CN(C)C(=O)Nc1c(C)noc1C)O2`, for which the cytotoxicity call in assay [1] and in assay [2] was “inactive” each time. In assay [3], the growth inhibition call was “inactive”.

As for `O=C(OC(C(F)(F)F)C(F)(F)F)N1CCN(Cc2ccc(C(F)(F)F)cc2N2CCCC2)CC1`, the cytotoxicity call in assay [1] and in assay [2] was “inactive” throughout. In assay [3], the growth inhibition call was “inactive”.

As for `CCOC(=O)c1cccc([C@@H]2CC(=O)N(C(=O)OCc3ccccc3)[C@@H]2C(=O)Nc2cccc3cccnc23)c1`, the cytotoxicity call in assay [1] and in assay [2] was “inactive” throughout. Further, the growth inhibition call in assay [3] was “inactive”.

As for `COC(=O)C[C@@H]1CC[C@H]2[C@@H](COC[C@H](O)CN2S(=O)(=O)c2ccc(F)cc2)O1`, the cytotoxicity call in assay [1] and in assay [2] was “inactive” throughout. The growth inhibition call in assay [3] was “inactive”.

Regarding `Nc1nccs1`, the cytotoxicity call in assay [1] and in assay [2] was “inactive” in each case. The growth inhibition call in assay [3] was “inactive”.

`Cc1ccc(S(=O)(=O)N(C)C[C@@H]2Oc3ncc(C#Cc4cccc(F)c4)cc3C(=O)N([C@H](C)CO)C[C@@H]2C)cc1`: in assay [1], the cytotoxicity call was “inactive”. The cytotoxicity call in assay [2] was “active”. Further, the growth inhibition call in assay [3] was “inactive”.

For `CC(C)NC(=O)N(C)C[C@@H]1Oc2ccc(NC(=O)CCN3CCOCC3)cc2C(=O)N([C@H](C)CO)C[C@@H]1C`, the cytotoxicity call in assay [1] and in assay [2] was “inactive” throughout. In assay [3], the growth inhibition call is “inactive”.

As to `CCOC(=O)c1cccnc1N`, the cytotoxicity call in assay [1] and in assay [2] was “inactive” each time. For the same molecule, the growth inhibition call in assay [3] is “inactive”.

For `C[C@@H]1CN([C@H](C)CO)C(=O)c2cc(C#Cc3ccccn3)cnc2O[C@@H]1CN(C)C(=O)CCN1CCCCC1`, the cytotoxicity call in assay [1] and in assay [2] was “inactive” throughout. In addition, the growth inhibition call in assay [3] was “inactive”.

Regarding `C[C@@H]1CN([C@@H](C)CO)C(=O)CCCn2nncc2CO[C@@H]1CN(C)C(=O)Nc1ccc(N2CCN(C)CC2)cc1`, the cytotoxicity call in assay [1] and in assay [2] was “inactive” each time. Moreover, the growth inhibition call in assay [3] was “inactive”.

For the molecule `COc1ccccc1C(=O)Nc1ccc2c(c1)C(=O)N(C)[C@H]1CC[C@H](CC(=O)NCc3ccc(Cl)c(Cl)c3)O[C@@H]1CO2`, the cytotoxicity call in assay [1] is “inactive”. Moreover, the cytotoxicity call in assay [2] was “active”. Also, the growth inhibition call in assay [3] was “inactive”.

`C[C@@H](O)C#Cc1cnc2c(c1)C(=O)N([C@@H](C)CO)C[C@H](C)[C@H](CN(C)C(=O)Nc1ccc(C(F)(F)F)cc1)O2`: the cytotoxicity call in assay [1] and in assay [2] was “inactive” throughout. Moreover, in assay [3], the growth inhibition call was “inactive”.

`Cc1ccc(OC(=O)N(C)C[C@@H]2OCc3ccccc3-c3ccccc3C(=O)N([C@@H](C)CO)C[C@@H]2C)cc1`: the cytotoxicity call in assay [1] and in assay [2] was “inactive” each time. In addition, the growth inhibition call in assay [3] was “inactive”.

Turning to `C[C@@H]1CN([C@H](C)CO)C(=O)c2cc(NC(=O)NC3CCCCC3)ccc2O[C@@H](C)CCCCO[C@H]1CN(C)S(=O)(=O)c1ccc(F)cc1`, the cytotoxicity call in assay [1] and in assay [2] was “inactive” throughout. The growth inhibition call in assay [3] was “inactive”.

Take `C[C@H]1CN([C@@H](C)CO)S(=O)(=O)c2ccc(C#CCN(C)C)cc2O[C@@H]1CN(C)Cc1ccc(F)cc1`: the cytotoxicity call in assay [1] and in assay [2] was “inactive” each time. Moreover, in assay [3], the growth inhibition call is “inactive”.

With `C[C@H](CO)N1C[C@H](C)[C@@H](CN(C)C(=O)Nc2cccc3ccccc23)Oc2ccc(NS(=O)(=O)c3ccc(F)cc3)cc2C1=O`, the cytotoxicity call in assay [1] and in assay [2] was “inactive” throughout. The growth inhibition call in assay [3] is “inactive”.

Turning to `C[C@@H]1CCCCO[C@@H](CN(C)S(=O)(=O)c2ccc(Cl)cc2)[C@@H](C)CN([C@@H](C)CO)C(=O)c2cc(NC(=O)Cc3ccccc3)ccc2O1`, the cytotoxicity call in assay [1] and in assay [2] was “inactive” throughout. The growth inhibition call in assay [3] is “inactive”.

Turning to `Cc1noc(C)c1NC(=O)Nc1ccc2c(c1)C(=O)N([C@H](C)CO)C[C@@H](C)[C@H](CN(C)Cc1ccc(C(F)(F)F)cc1)OCCCC[C@H](C)O2`, the cytotoxicity call in assay [1] and in assay [2] was “inactive” throughout. Moreover, the growth inhibition call in assay [3] is “inactive”.

Turning to `COc1ccccc1OCCNCC(O)COc1cccc2[nH]c3ccccc3c12.O=P(O)(O)O` (centres undefined), in assay [1], the cytotoxicity call was “inactive”. In assay [2], the cytotoxicity call is “active”. For the same molecule, the growth inhibition call in assay [3] is “inactive”.

For the molecule `Cc1ccc(S(=O)(=O)Nc2ccc3c(c2)C(=O)N([C@@H](C)CO)C[C@@H](C)[C@@H](CN(C)C(=O)Nc2cccc4ccccc24)O3)cc1`, the cytotoxicity call in assay [1] and in assay [2] was “inactive” in each case. The growth inhibition call in assay [3] was “inactive”.

In the case of `COc1ccc(S(=O)(=O)N(C)C[C@H]2Oc3ccc(NC(=O)c4ccncc4)cc3CC(=O)N([C@@H](C)CO)C[C@@H]2C)cc1`, the cytotoxicity call in assay [1] and in assay [2] was “inactive” throughout. The growth inhibition call in assay [3] is “inactive”.

Regarding `C[C@@H]1CCCCO[C@H](CN(C)C(=O)CCC(F)(F)F)[C@@H](C)CN([C@H](C)CO)C(=O)c2cc(NC(=O)Nc3ccc4c(c3)OCO4)ccc2O1`, the cytotoxicity call in assay [1] and in assay [2] was “inactive” each time. In addition, in assay [3], the growth inhibition call was “inactive”.

As for `O=C(C[C@@H]1CC[C@H]2[C@@H](COC[C@@H](O)CN2S(=O)(=O)c2ccc(Oc3ccccc3)cc2)O1)NC1CCC1`, the cytotoxicity call in assay [1] and in assay [2] was “inactive” each time. Moreover, the growth inhibition call in assay [3] is “inactive”.

For the molecule `C[C@@H]1CN([C@H](C)CO)C(=O)Cc2cc(NC(=O)Nc3ccc(C(F)(F)F)cc3)ccc2O[C@H]1CN(C)Cc1ccc2c(c1)OCO2`, the cytotoxicity call in assay [1] and in assay [2] was “inactive” in each case. Further, in assay [3], the growth inhibition call was “inactive”.

Regarding `COc1ccc2cc1Oc1ccc(cc1)CC1c3c(cc4c(c3Oc3cc5c(cc3OC)CCN(C)C5C2)OCO4)CCN1C` (centres undefined), the cytotoxicity call in assay [1] is “inactive”. The cytotoxicity call in assay [2] is “active”. The growth inhibition call in assay [3] was “inactive”.

Take `C[C@H](CO)N1C[C@H](C)[C@@H](CN(C)C(=O)Nc2ccc(F)cc2)Oc2ccc(NC(=O)CCN3CCOCC3)cc2C1=O`: the cytotoxicity call in assay [1] and in assay [2] was “inactive” each time. Further, the growth inhibition call in assay [3] was “inactive”.

On to `CCC=CCC1=C(C)CCC1=O`, for which the cytotoxicity call in assay [1] and in assay [2] was “inactive” in each case. Further, the growth inhibition call in assay [3] is “inactive”.
